Cytotoxicity call and growth inhibition call data for 24 compounds are collected here from the antibiotic and cytotoxicity screens of Wong et al. (2023).

The list shows a part of the results.

For test [1], the system named is HSkMC (human skeletal muscle cells). Description: cytotoxicity call (relative viability < 0.9). Conditions: 10 µM.
The subject of test [2] is HepG2. Kind of test: cytotoxicity call (relative viability < 0.9). Conditions: 10 µM.
Test [3] concerns S. aureus RN4220. Description: growth inhibition call (relative growth <= 0.2). Conditions: 50 µM.

With `FC(F)(F)c1ccc(/C=N/c2cc(Cl)cc(Cl)c2)cc1`, the cytotoxicity call in test [1] and in test [2] was “inactive” throughout. Also, the growth inhibition call in test [3] was “inactive”.

On to `COc1ccc(NC(=O)N(C)C[C@H]2Oc3ccc(NC(=O)CCCCCC(=O)Nc4ccccc4N)cc3CC(=O)N([C@@H](C)CO)C[C@@H]2C)cc1`, for which the cytotoxicity call in test [1] and in test [2] was “inactive” in each case. For the same compound, the growth inhibition call in test [3] is “inactive”.

Regarding `C[C@H](CO)N1C[C@H](C)[C@@H](CN(C)C(=O)Nc2cccc3ccccc23)OCCCC[C@H](C)Oc2ccc(NS(C)(=O)=O)cc2C1=O`, the cytotoxicity call in test [1] and in test [2] was “inactive” in each case. Besides, in test [3], the growth inhibition call is “inactive”.

Take `O=S(=O)(O)c1ccc2c(c1)cc(S(=O)(=O)O)c1nn(-c3ccc(/C=C/c4ccc(-n5nc6c(S(=O)(=O)O)cc7cc(S(=O)(=O)O)ccc7c6n5)cc4S(=O)(=O)O)c(S(=O)(=O)O)c3)nc12`: the cytotoxicity call in test [1] and in test [2] was “inactive” in each case. Besides, the growth inhibition call in test [3] was “inactive”.

Turning to `C[C@H](O)C#Cc1cnc2c(c1)C(=O)N([C@@H](C)CO)C[C@H](C)[C@@H](CN(C)C(=O)CN1CCOCC1)O2`, the cytotoxicity call in test [1] and in test [2] was “inactive” throughout. In addition, the growth inhibition call in test [3] is “inactive”.

Turning to `Cc1ncc([N+](=O)[O-])n1C[C@@H](O)CCl`, the cytotoxicity call in test [1] and in test [2] was “inactive” each time. Also, the growth inhibition call in test [3] is “inactive”.

For `Cc1noc(C)c1S(=O)(=O)Nc1ccc2c(c1)C(=O)N([C@@H](C)CO)C[C@@H](C)[C@@H](CN(C)Cc1ccc3c(c1)OCO3)O2`, the cytotoxicity call in test [1] and in test [2] was “inactive” each time. The growth inhibition call in test [3] is “inactive”.

In the case of `C[C@@H]1CN([C@H](C)CO)C(=O)c2cc(NC(=O)Nc3ccc(C(F)(F)F)cc3)ccc2O[C@H]1CN(C)Cc1ccc2c(c1)OCO2`, the cytotoxicity call in test [1] and in test [2] was “inactive” in each case. For the same compound, the growth inhibition call in test [3] is “inactive”.

As to `CC(/C=C/C(=O)NO)=C\c1ccccc1OC[C@@H]1[C@H]2C[C@H]3c4[nH]c5ccccc5c4CCN3C[C@@H]2CC[C@@H]1O`, the cytotoxicity call in test [1] and in test [2] was “inactive” throughout. Besides, the growth inhibition call in test [3] is “inactive”.

Regarding `COc1ccc(NC(=O)N(C)C[C@H]2Oc3c(NS(=O)(=O)c4cn(C)cn4)cccc3C(=O)N([C@@H](C)CO)C[C@@H]2C)cc1`, the cytotoxicity call in test [1] and in test [2] was “inactive” throughout. In test [3], the growth inhibition call was “inactive”.

In the case of `COc1ccc(S(=O)(=O)N(C)C[C@@H]2Oc3c(NS(=O)(=O)c4cccs4)cccc3C(=O)N([C@@H](C)CO)C[C@@H]2C)cc1`, the cytotoxicity call in test [1] and in test [2] was “inactive” each time. Moreover, in test [3], the growth inhibition call is “inactive”.

Consider `COc1ccc(NC(=O)N(C)C[C@H]2Oc3ccc(NC(=O)Nc4cccc5ccccc45)cc3C(=O)N([C@@H](C)CO)C[C@H]2C)cc1`, for which the cytotoxicity call in test [1] and in test [2] was “inactive” in each case. In test [3], the growth inhibition call is “inactive”.

`COc1ccc(S(=O)(=O)N(C)C[C@@H]2Oc3ccc(NC(=O)NC(C)C)cc3C(=O)N([C@H](C)CO)C[C@@H]2C)cc1`: the cytotoxicity call in test [1] and in test [2] was “inactive” in each case. For the same compound, the growth inhibition call in test [3] was “inactive”.

Turning to `C[C@@H]1CN([C@@H](C)CO)C(=O)c2cc(NC(=O)CCC(F)(F)F)ccc2O[C@@H]1CN(C)Cc1ccc(C(=O)Nc2ccccc2N)cc1`, the cytotoxicity call in test [1] and in test [2] was “inactive” each time. Moreover, in test [3], the growth inhibition call is “inactive”.

In the case of `C[C@@H]1CN([C@H](C)CO)C(=O)c2cc(NC(=O)CCN3CCOCC3)ccc2O[C@H]1CN(C)S(=O)(=O)c1cccs1`, the cytotoxicity call in test [1] and in test [2] was “inactive” in each case. Besides, the growth inhibition call in test [3] is “inactive”.

As for `O=C(CCc1cn(-c2ccc(C[C@H]3C(=O)O[C@@H](Cc4ccccc4)[C@H]4C=C(/C=C/C5CC5)CN43)cc2)nn1)NO`, the cytotoxicity call in test [1] and in test [2] was “inactive” each time. In test [3], the growth inhibition call is “inactive”.

Take `C[C@@H]1CCCCO[C@H](CN(C)S(=O)(=O)c2ccc(F)cc2)[C@H](C)CN([C@@H](C)CO)C(=O)c2cc(NC(=O)Nc3ccc4c(c3)OCO4)ccc2O1`: the cytotoxicity call in test [1] and in test [2] was “inactive” in each case. The growth inhibition call in test [3] was “inactive”.

Turning to `CC(=O)OCC(COC(C)=O)OC(C)=O`, the cytotoxicity call in test [1] and in test [2] was “inactive” throughout. Moreover, in test [3], the growth inhibition call is “inactive”.

Consider `Cc1ccc(S(=O)(=O)Nc2ccc3c(c2)CC(=O)N([C@@H](C)CO)C[C@H](C)[C@H](CN(C)S(C)(=O)=O)O3)cc1`, for which the cytotoxicity call in test [1] and in test [2] was “inactive” each time. In addition, the growth inhibition call in test [3] was “inactive”.

Take `O=C(C[C@@H]1CC[C@H]2[C@@H](COC[C@H](O)CN2S(=O)(=O)c2cccc(Cl)c2)O1)NCCCN1CCOCC1`: the cytotoxicity call in test [1] and in test [2] was “inactive” in each case. Further, the growth inhibition call in test [3] is “inactive”.

Regarding `C[C@@H]1CN([C@@H](C)CO)C(=O)c2cc(NS(=O)(=O)c3ccccc3)ccc2O[C@@H](C)CCCCO[C@@H]1CN(C)C(=O)Nc1ccc(C(F)(F)F)cc1`, the cytotoxicity call in test [1] is “active”. In test [2], the cytotoxicity call is “inactive”. In addition, in test [3], the growth inhibition call is “inactive”.

On to `O=c1nc[nH]c2c1ncn2[C@H]1CC[C@@H](CO)O1`, for which the cytotoxicity call in test [1] and in test [2] was “inactive” each time. For the same compound, the growth inhibition call in test [3] was “inactive”.

Regarding `COc1ccc(CN(C)C[C@@H]2OCCCC[C@@H](C)Oc3ccc(NC(=O)Nc4c(C)noc4C)cc3C(=O)N([C@@H](C)CO)C[C@@H]2C)cc1`, the cytotoxicity call in test [1] and in test [2] was “inactive” in each case. In addition, in test [3], the growth inhibition call was “inactive”.

For the compound `C[C@@H]1CN([C@@H](C)CO)C(=O)c2cccc(NS(=O)(=O)c3cn(C)cn3)c2O[C@@H]1CN(C)S(=O)(=O)c1ccc(F)cc1`, the cytotoxicity call in test [1] and in test [2] was “inactive” each time. Also, the growth inhibition call in test [3] was “inactive”.
